# Reference: the supplement of paper PMC11741623
# The list shows a part of the results. Interaction screen of human proteins with wild-type SARS-CoV-2 proteins by split-DHFR complementation in yeast, 1 µg/mL methotrexate. Value = fitness of the pair (three or more lineages) minus that of the viral protein without a human partner, on a scale set by negative (0) and fused positive (1) controls, mean of up to three cultures; higher = more likely to interact. Active = false discovery rate below 0.05 (one-sided t-test) in at least one culture. Nearly all pairs are not hits, and differences among them are mostly noise (correlation between cultures about 0.3); most hits were seen in one culture only. Human sequences are the Swiss-Prot entries looked up by gene name; the clone may be another isoform. NSP2 values were corrected by the authors for a growth advantage. Listed are human proteins with a hit and a random twelfth of the others.
# B1: KLHDC4, Q8TBB5 (protein)
# chain: MGKKGKKEKKGRGAEKTAAKMEKKVSKRSRKEEEDLEALIAHFQTLDAKRTQTVELPCPPPSPRLNASLSVHPEKDELILFGGEYFNGQKTFLYNELYVYNTRKDTWTKVDIPSPPPRRCAHQAVVVPQGGGQLWVFGGEFASPNGEQFYHYKDLWVLHLATKTWEQVKSTGGPSGRSGHRMVAWKRQLILFGGFHESTRDYIYYNDVYAFNLDTFTWSKLSPSGTGPTPRSGCQMSVTPQGGIVVYGGYSKQRVKKDVDKGTRHSDMFLLKPEDGREDKWVWTRMNPSGVKPTPRSGFSVAMAPNHQTLFFGGVCDEEEEESLSGEFFNDLYFYDATRNRWFEGQLKGPKSEKKKRRRGRKEEPEGGSRPACGGAGTQGPVQLVKEVVAEDGTVVTIKQVLTAPGSAGQPRSEDEDSLEEAGSPAPGPCPRSNAMLAVKHGVLYVYGGMFEAGDRQVTLSDLHCLDLHRMEAWKALVEMDPETQEWLEETDSEEDSEEVEGAEGGVDDEDSGEESGAED
# B2: ING1, Q9UK53 (protein)
# chain: MSFVECPYHSPAERLVAEADEGGPSAITGMGLCFRCLLFSFSGRSGVEGGRVDLNVFGSLGLQPWIGSSRCWGGPCSSALRCGWFSSWPPPSKSAIPIGGGSRGAGRVSRWPPPHWLEAWRVSPLPLSPLSPATFGRGFIAVAVIPGLWARGRGCSSDRLPRPAGPARRQFQAASLLTRGWGRAWPWKQILKELDECYERFSRETDGAQKRRMLHCVQRALIRSQELGDEKIQIVSQMVELVENRTRQVDSHVELFEAQQELGDTAGNSGKAGADRPKGEAAAQADKPNSKRSRRQRNNENRENASSNHDHDDGASGTPKEKKAKTSKKKKRSKAKAEREASPADLPIDPNEPTYCLCNQVSYGEMIGCDNDECPIEWFHFSCVGLNHKPKGKWYCPKCRGENEKTMDKALEKSKKERAYNR
# B3: LPL, P06858 (protein)
# chain: MESKALLVLTLAVWLQSLTASRGGVAAADQRRDFIDIESKFALRTPEDTAEDTCHLIPGVAESVATCHFNHSSKTFMVIHGWTVTGMYESWVPKLVAALYKREPDSNVIVVDWLSRAQEHYPVSAGYTKLVGQDVARFINWMEEEFNYPLDNVHLLGYSLGAHAAGIAGSLTNKKVNRITGLDPAGPNFEYAEAPSRLSPDDADFVDVLHTFTRGSPGRSIGIQKPVGHVDIYPNGGTFQPGCNIGEAIRVIAERGLGDVDQLVKCSHERSIHLFIDSLLNEENPSKAYRCSSKEAFEKGLCLSCRKNRCNNLGYEINKVRAKRSSKMYLKTRSQMPYKVFHYQVKIHFSGTESETHTNQAFEISLYGTVAESENIPFTLPEVSTNKTYSFLIYTEVDIGELLMLKLKWKSDSYFSWSDWWSSPGFAIQKIRVKAGETQKKVIFCSREKVSHLQKGKAPAVFVKCHDKSLNKKSG
# B4: IKBIP, Q70UQ0 (protein)
# chain: MSEVKSRKKSGPKGAPAAEPGKRSEGGKTPVARSSGGGGWADPRTCLSLLSLGTCLGLAWFVFQQSEKFAKVENQYQLLKLETNEFQQLQSKISLISEKWQKSEAIMEQLKSFQIIAHLKRLQEEINEVKTWSNRITEKQDILNNSLTTLSQDITKVDQSTTSMAKDVGLKITSVKTDIRRISGLVTDVISLTDSVQELENKIEKVEKNTVKNIGDLLSSSIDRTATLRKTASENSQRINSVKKTLTELKSDFDKHTDRFLSLEGDRAKVLKTVTFANDLKPKVYNLKKDFSRLEPLVNDLTLRIGRLVTDLLQREKEIAFLSEKISNLTIVQAEIKDIKDEIAHISDMN
# Biological target: SARS-CoV-2 M
# Assay: yeast fitness gain over the viral ORF with no human partner (scaled fitness); higher = more likely to interact
# Description: (§1)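 Split mouse DHFR complementation in pooled diploid yeast: human ORFeome clones carry one fragment and viral ORFs the other; barcoded lineages compete in 1 µg/mL methotrexate and fitness is read by barcode sequencing in up to three cultures.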
row,Binder,yeast fitness gain
1,B1,inactive: -0.147
2,B2,inactive: -0.17
3,B3,inactive: -0.0701
4,B4,inactive: -0.119

# Biological target: SARS-CoV-2 N
# Assay: as above
# Description: as §1
row,Binder,yeast fitness gain
1,B1,inactive: -0.169
2,B3,inactive: 0.0179

# Biological target: SARS-CoV-2 NSP1
# Assay: as above
# Description: as §1
row,Binder,yeast fitness gain
1,B1,inactive: 0.0742
2,B3,inactive: -0.06

# Biological target: SARS-CoV-2 NSP10
# Assay: as above
# Description: as §1
row,Binder,yeast fitness gain
1,B1,inactive: -0.0439
2,B3,inactive: 0.0376

# Biological target: SARS-CoV-2 NSP12
# Assay: as above
# Description: as §1
row,Binder,yeast fitness gain
1,B1,inactive: 0.0326
2,B2,inactive: -0.217
3,B3,inactive: -0.0983

# Biological target: SARS-CoV-2 NSP13
# Assay: as above
# Description: as §1
row,Binder,yeast fitness gain
1,B1,inactive: -0.00396
2,B2,inactive: -0.385
3,B3,inactive: 0.0614
4,B4,inactive: -0.316

# Biological target: SARS-CoV-2 NSP16
# Assay: as above
# Description: as §1
row,Binder,yeast fitness gain
1,B1,inactive: -0.1

# Biological target: SARS-CoV-2 NSP2
# Assay: as above
# Description: as §1
row,Binder,yeast fitness gain
1,B1,inactive: 0.127
2,B2,inactive: -0.105
3,B3,inactive: -0.34
4,B4,inactive: -0.246

# Biological target: SARS-CoV-2 NSP5
# Assay: as above
# Description: as §1
row,Binder,yeast fitness gain
1,B1,inactive: -0.0146
2,B2,inactive: 0.00991
3,B3,inactive: -0.0325
4,B4,inactive: 0.00655

# Biological target: SARS-CoV-2 NSP6
# Assay: as above
# Description: as §1
row,Binder,yeast fitness gain
1,B1,inactive: -0.0156
2,B3,inactive: 0.0177

# Biological target: SARS-CoV-2 NSP7
# Assay: as above
# Description: as §1
row,Binder,yeast fitness gain
1,B1,inactive: 0.0633
2,B2,inactive: -0.258

# Biological target: SARS-CoV-2 NSP8
# Assay: as above
# Description: as §1
row,Binder,yeast fitness gain
1,B1,inactive: 0.0395
2,B2,inactive: -0.0458
3,B4,inactive: 0.1

# Biological target: SARS-CoV-2 NSP9
# Assay: as above
# Description: as §1
row,Binder,yeast fitness gain
1,B1,inactive: -0.234
2,B2,inactive: -0.00398
3,B3,inactive: -0.00888

# Biological target: SARS-CoV-2 ORF10
# Assay: as above
# Description: as §1
row,Binder,yeast fitness gain
1,B1,inactive: -0.0376
2,B3,inactive: 0.0201

# Biological target: SARS-CoV-2 ORF3A
# Assay: as above
# Description: as §1
row,Binder,yeast fitness gain
1,B1,inactive: 0.0951
2,B3,inactive: -0.0475

# Biological target: SARS-CoV-2 ORF3B
# Assay: as above
# Description: as §1
row,Binder,yeast fitness gain
1,B1,inactive: 0.0524
2,B2,inactive: -0.025
3,B3,inactive: 0.0116

# Biological target: SARS-CoV-2 ORF6
# Assay: as above
# Description: as §1
row,Binder,yeast fitness gain
1,B1,inactive: -0.0199
2,B2,inactive: -0.0578
3,B3,inactive: -0.0198
4,B4,inactive: -0.0786

# Biological target: SARS-CoV-2 ORF7A
# Assay: as above
# Description: as §1
row,Binder,yeast fitness gain
1,B1,inactive: -0.0206
2,B2,inactive: -0.11
3,B3,inactive: 0.0256

# Biological target: SARS-CoV-2 ORF7B
# Assay: as above
# Description: as §1
row,Binder,yeast fitness gain
1,B1,inactive: 0.0385
2,B3,inactive: 0.0939

# Biological target: SARS-CoV-2 ORF8
# Assay: as above
# Description: as §1
row,Binder,yeast fitness gain
1,B1,inactive: 0.0017
2,B2,inactive: 0.011
3,B3,inactive: -0.0531

# Biological target: SARS-CoV-2 ORF9B
# Assay: as above
# Description: as §1
row,Binder,yeast fitness gain
1,B1,inactive: -0.0253
2,B2,inactive: 0.181
3,B3,inactive: -0.0402
4,B4,inactive: 0.0498

# Biological target: SARS-CoV-2 ORF9Bwu (the 73-codon ORF)
# Assay: as above
# Description: as §1
row,Binder,yeast fitness gain
1,B1,inactive: -0.141
2,B2,inactive: -0.084
3,B3,inactive: 0.0554
4,B4,inactive: 0.023

# Biological target: SARS-CoV-2 S
# Assay: as above
# Description: as §1
row,Binder,yeast fitness gain
1,B1,inactive: -0.0719
2,B2,inactive: 0.0156

# Biological target: SARS-CoV-2 NSP14
# Assay: as above
# Description: as §1
row,Binder,yeast fitness gain
1,B3,inactive: 0.00223
2,B4,inactive: -0.13
